Data as given in patent publication EP0402852A1, “Irreversible bombesin antagonists” (priority 1989, dated 1990).
Not every detail of the peptide structures is certain; ends, links or a residue may be inferred. Starred links: 1 amine or outer side, 2 acyl side, 3 side chain; linkers in the order of their positions; H or OH if unused. Non-standard residues stand in square brackets, D forms with d. Residues, ends and D or L forms follow the SMILES beside them. *: point of attachment. X2 = CC(C)C[C@@H](CN[C@@H](CC(C)C)C(N)=O)N*; Carbamoyl(2-ClEt,NO) = O=NN(CCCl)C(=O)*; X1 = O=C(c1ccc(N(CCCl)CCCl)cc1)*; pGlu = O=C1CC[C@@H](C(=O)O)N1; Suc = O=C(CCC(=O)[*:2])[*:1]; Nle = CCCC[C@H](N)C(=O)O; CH2Cl = ClC*

Assays:
[1] = test system: mouse Swiss 3T3 fibroblasts; assay: Mitogenesis: [H³]thymidine incorporation in quiescent, confluent Swiss 3T3 cells; type: cell-based; conditions: for FOLD INCREASE OVER BASAL VALUE: [H³]thymidine incorporation, compound alone
Protocol: The effect on mitogenesis was determined in quiescent and confluent Swiss 3T3 cells maintained in serum free medium (A.N.Corps et al (1985) Biochem J. 231, 781-785). In a first set of experiments, analogues are given alone or in combination with bombesin. In a second set of experiments, cells are pre-treated with the alkylating peptides, washed, left at 37°C for 24 hours and then challenged with bombesin. In both cases, DNA synthesis was evaluated as [H³]thymidine incorporation (Table 2).

[2] = test system: p115 protein associated with the bombesin receptor; assay: Phosphorylation of the p115 protein (activation of protein-tyrosin kinase); type: cell-based
Protocol: Mitogenic effect of bombesin and its analogues were also evaluated as activation of the protein-tyrosin kinase that phosphorylates a 115 KD protein (p115) associated with the bombesin receptor complex (D. Cirillo et al. (1986) Mol.Cell. Biol. 6, 4641- 4649) (Table 3). In addition, exposure to these peptides in the 0.1-50 µM range was associated with significant reduction in the growth of SCLC cell lines (such as NCI-H345, NCI-N592, NCI-H128), as well as of prostatic carcinoma cell lines (such as DU145 and PC3).

[3] = A: analogues given in combination with BBS, 0.5µM
[4] = A: analogues given in combination with BBS, 5 µM
[5] = B: cells pre-treated with analogues, washed, left at 37°C for 24 h, then challenged with BBS, 0.5µM
[6] = B: cells pre-treated with analogues, washed, left at 37°C for 24 h, then challenged with BBS, 5 µM

With `CSCC[C@H](NC(=O)[C@H](CC(C)C)NC(=O)CNC(=O)[C@@H](NC(=O)[C@H](C)NC(=O)[C@H](Cc1c[nH]c2ccccc12)NC(=O)[C@H](CCC(N)=O)NC(=O)[C@@H](NC(=O)c1ccc(N(CCCl)CCCl)cc1)[C@@H](C)O)C(C)C)C(N)=O` [I, 4-(ClCH₂CH₂)₂NC₆H₄CO-Thr-Gln-Trp-Ala-Val-Gly-Leu-Met-NH₂] (X1-TQWAVGLM-NH2) the “% INHIBITION IN THE PRESENCE OF 25nM BBS” value [1, 3] was 9 ± 6%, the “% INHIBITION IN THE PRESENCE OF 25nM BBS” value [1, 4] was 12±3% and the “% INHIBITION IN THE PRESENCE OF 25nM BBS” value [1, 5] was 0%. The “FOLD INCREASE OVER BASAL VALUE” ([1]; 0.5µM) was 0.6, the “FOLD INCREASE OVER BASAL VALUE” ([1]; 5 µM) was 0.6 and the “MINIMAL ACTIVE DOSE” value [2] was greater than 4000 nM.

For `CCCC[C@H](NC(=O)[C@H](CC(C)C)NC(=O)CNC(=O)[C@@H](NC(=O)[C@H](C)NC(=O)[C@H](Cc1c[nH]c2ccccc12)NC(=O)[C@H](CCC(N)=O)NC(=O)[C@@H](NC(=O)c1ccc(N(CCCl)CCCl)cc1)[C@@H](C)O)C(C)C)C(N)=O` [II, 4-(ClC₂CH₂)₂NC₆H₄CO-Thr-Gln-Trp-Ala-Val-Gly-Leu-Nle-NH₂] (X1-TQWAVGL[Nle]-NH2), the “% INHIBITION IN THE PRESENCE OF 25nM BBS” value [1, 3] was 0%, the “% INHIBITION IN THE PRESENCE OF 25nM BBS” value [1, 4] was 50±10% and the “% INHIBITION IN THE PRESENCE OF 25nM BBS” value [1, 5] was 0%. For the same compound, the “FOLD INCREASE OVER BASAL VALUE” ([1]; 0.5µM) was 1.0, the “FOLD INCREASE OVER BASAL VALUE” ([1]; 5 µM) was 1.0 and the “MINIMAL ACTIVE DOSE” value [2] was greater than 1000 nM.

For `CSCC[C@H](NC(=O)[C@H](CC(C)C)NC(=O)[C@H](Cc1c[nH]cn1)NC(=O)CNC(=O)[C@@H](NC(=O)[C@H](C)NC(=O)[C@H](Cc1c[nH]c2ccccc12)NC(=O)[C@H](CCC(N)=O)NC(=O)[C@@H](NC(=O)c1ccc(N(CCCl)CCCl)cc1)[C@@H](C)O)C(C)C)C(N)=O` [IV, 4-(ClCH₂CH₂)₂NC₆H₄CO-Thr-Gln-Trp-Ala-Val-Gly-His-Leu-Met-NH₂], the “% INHIBITION IN THE PRESENCE OF 25nM BBS” value [1, 3] was 13±8%, the “% INHIBITION IN THE PRESENCE OF 25nM BBS” value [1, 4] was 32±9% and the “% INHIBITION IN THE PRESENCE OF 25nM BBS” value [1, 5] was 0%. The “% INHIBITION IN THE PRESENCE OF 25nM BBS” value [1, 6] was 20±12%, the “FOLD INCREASE OVER BASAL VALUE” ([1]; 0.5µM) was 3.2 and the “FOLD INCREASE OVER BASAL VALUE” ([1]; 5 µM) was 2.2. The “MINIMAL ACTIVE DOSE” value [2] was 500 nM.

`CCCC[C@H](NC(=O)[C@H](CC(C)C)NC(=O)CNC(=O)[C@@H](NC(=O)[C@H](C)NC(=O)[C@H](Cc1c[nH]c2ccccc12)NC(=O)[C@H](CCC(N)=O)NC(=O)[C@@H](NC(=O)N(CCCl)N=O)[C@@H](C)O)C(C)C)C(N)=O` [V, ClCH₂CH₂N(NO)CO-Thr-Gln-Trp-Ala-Val-Gly-Leu-Nle-NH₂] ({Carbamoyl(2-ClEt,NO)}-TQWAVGL[Nle]-NH2) was tested, and the “% INHIBITION IN THE PRESENCE OF 25nM BBS” value [1, 3] was 0%, the “% INHIBITION IN THE PRESENCE OF 25nM BBS” value [1, 4] was 0% and the “% INHIBITION IN THE PRESENCE OF 25nM BBS” value [1, 5] was 0%. For the same compound, the “% INHIBITION IN THE PRESENCE OF 25nM BBS” value [1, 6] was 0%, the “FOLD INCREASE OVER BASAL VALUE” ([1]; 50nM) was 1.8 and the “FOLD INCREASE OVER BASAL VALUE” ([1]; 0.5µM) was 1.8. The “FOLD INCREASE OVER BASAL VALUE” ([1]; 5 µM) was 2.5 and the “MINIMAL ACTIVE DOSE” value [2] was greater than 2000 nM.

For `CCCC[C@H](NC(=O)CCC(=O)N[C@H](C(=O)N[C@@H](CCC(N)=O)C(=O)N[C@@H](Cc1c[nH]c2ccccc12)C(=O)N[C@@H](C)C(=O)N[C@H](C(=O)NCC(=O)N[C@@H](CC(C)C)C(=O)N[C@@H](CCSC)C(N)=O)C(C)C)[C@@H](C)O)C(=O)CCl` [VI, CH₃(CH₂)₃CH(COCH₂Cl)NHCO(CH₂)₂CO-Thr-Gln-Trp-Ala-Val-Gly-Leu-Met-NH₂] ({CH2Cl-Nle-Suc}-TQWAVGLM-NH2), the “% INHIBITION IN THE PRESENCE OF 25nM BBS” value [1, 3] was 0%, the “% INHIBITION IN THE PRESENCE OF 25nM BBS” value [1, 4] was 0% and the “% INHIBITION IN THE PRESENCE OF 25nM BBS” value [1, 5] was 39±14%. For the same compound, the “% INHIBITION IN THE PRESENCE OF 25nM BBS” value [1, 6] was 29±10%, the “FOLD INCREASE OVER BASAL VALUE” ([1]; 50nM) was 1.0 and the “FOLD INCREASE OVER BASAL VALUE” ([1]; 0.5µM) was 1.0. For the same compound, the “FOLD INCREASE OVER BASAL VALUE” ([1]; 5 µM) was 1.0 and the “MINIMAL ACTIVE DOSE” value [2] was greater than 1000 nM.

For `CC(C)C[C@@H](CN[C@@H](CC(C)C)C(N)=O)NC(=O)[C@H](Cc1c[nH]cn1)NC(=O)CNC(=O)[C@@H](NC(=O)[C@H](C)NC(=O)[C@H](Cc1c[nH]c2ccccc12)NC(=O)[C@H](CCC(N)=O)NC(=O)[C@H](CC(N)=O)NC(=O)CNC(=O)[C@H](CC(C)C)NC(=O)[C@H](CCCNC(=N)N)NC(=O)[C@H](CCC(N)=O)NC(=O)[C@@H]1CCC(=O)N1)C(C)C` [[Leu¹³Ψ(CH₂-NH)Leu¹⁴]BBS, reference compound] ([pGlu]QRLGNQWAVGH-X2), the “% INHIBITION IN THE PRESENCE OF 25nM BBS” value [1, 3] was 29±10%, the “% INHIBITION IN THE PRESENCE OF 25nM BBS” value [1, 4] was 56±4% and the “% INHIBITION IN THE PRESENCE OF 25nM BBS” value [1, 5] was 0%. The “% INHIBITION IN THE PRESENCE OF 25nM BBS” value [1, 6] was 0%, the “FOLD INCREASE OVER BASAL VALUE” ([1]; 0.5µM) was 1 and the “FOLD INCREASE OVER BASAL VALUE” ([1]; 5 µM) was 1. For the same compound, the “MINIMAL ACTIVE DOSE” value [2] was greater than 200 nM.
